Laboratory results as given in the supplement of paper PMC12217912.
Some of the results follow. The full chains were built here from the parent and the listed change. Values near 0.05 are background.

B1: TEV protease; numbered along this chain (parent)
chain: MGESLFKGPRDYNPISSSICHLTNESDGHTTSLYGIGFGPFIITNKHLFRRNNGTLVVQSLHGVFKVKDTTTLQQHLVDGRDMIIIRMPKDFPPFPQKLKFREPQREERICLVTTNFQTKSMSSMVSDTSCTFPSGDGIFWKHWIQTKDGQCGSPLVSTRDGFIVGIHSASNFTNTNNYFTSVPKNFMELLTNQEAQQWVSGWRLNADSVLWGGHKVFMVKPEEPFQPVKEATQL

Variants of: B1
Test: raw area under fraction-flipped curve 0-4 h after induction (AUC4h, not background-subtracted), DNA-recorder readout of cleavage of the substrate (dimensionless); higher = more cleavage of the substrate by the protease variant
Settings: temperature: 34 °C; time window: 0-4 h after rhamnose induction
Experimental: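 In vivo DNA recorder in E. coli TOP10(DE3) ΔrhaA at 34 °C. Each TEVp single-site mutant (parent TEVp 0) is paired with a single-site variant of the 7-mer TEVs (canonical ENLYFQ|S). The substrate sits between flexible linkers in a Bxb1-sfGFP-TEVs-SsrA fusion, so cleavage stabilises Bxb1 and speeds flipping of a recombination array, read by NGS. The value is the raw area under the fraction-flipped curve over 0-4 h after rhamnose induction (AUC4h), with ≥20 reads per time point. It is not background-subtracted; inactive controls average about 0.047.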
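Also: Bxb1 expression induced with 0.2% (w/v) L-rhamnose at OD600 near 0.5, cultures sampled hourly, flipped fraction per protease–substrate barcode pair counted by paired-end Illumina sequencing.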

Variant: MGESLFKGPRDYNPISSSICHLTNESDGHTTSLYGIGFGPFIITNKHLFRRNNGTLVVQPLHGVFKVKDTTTLQQHLVDGRDMIIIRMPKDFPPFPQKLKFREPQREERICLVTTNFQTKSMSSMVSDTSCTFPSGDGIFWKHWIQTKDGQCGSPLVSTRDGFIVGIHSASNFTNTNNYFTSVPKNFMELLTNQEAQQWVSGWRLNADSVLWGGHKVFMVKPEEPFQPVKEATQL [S60P]
- area with substrate ENAYFQS: 0.0473
- area with substrate ENCYFQS: 0.0562
- area with substrate ENDYFQS: 0.0502
- area with substrate ENEYFQS: 0.0492
- area with substrate ENFYFQS: 0.0542
- area with substrate ENHYFQS: 0.0458
- area with substrate ENKYFQS: 0.0396
- area with substrate ENNYFQS: 0.0507
- area with substrate ENPYFQS: 0.0521
- area with substrate ENQYFQS: 0.051
- area with substrate ENRYFQS: 0.053
- area with substrate ENSYFQS: 0.0701
- area with substrate ENTYFQS: 0.0543
- area with substrate ENVYFQS: 0.0388

Variant: MGESLFKGPRDYNPISSSICHLTNESDGHTTSLYGIGFGPFIITNKHLFRRNNGTLVVQMLHGVFKVKDTTTLQQHLVDGRDMIIIRMPKDFPPFPQKLKFREPQREERICLVTTNFQTKSMSSMVSDTSCTFPSGDGIFWKHWIQTKDGQCGSPLVSTRDGFIVGIHSASNFTNTNNYFTSVPKNFMELLTNQEAQQWVSGWRLNADSVLWGGHKVFMVKPEEPFQPVKEATQL [S60M]
- area with substrate ENAYFQS: 0.0646
- area with substrate ENDYFQS: 0.0592
- area with substrate ENEYFQS: 0.0594
- area with substrate ENFYFQS: 0.0642
- area with substrate ENGYFQS: 0.0539
- area with substrate ENHYFQS: 0.0652
- area with substrate ENKYFQS: 0.0458
- area with substrate ENMYFQS: 0.0729
- area with substrate ENNYFQS: 0.0558
- area with substrate ENPYFQS: 0.0707
- area with substrate ENQYFQS: 0.0616
- area with substrate ENRYFQS: 0.0445
- area with substrate ENSYFQS: 0.0618
- area with substrate ENTYFQS: 0.0599
- area with substrate ENVYFQS: 0.0869

Variant: MGESLFKGPRDYNPISSSICHLTNESDGHTTSLYGIGFGPFIITNKHLFRRNNGTEVVQSLHGVFKVKDTTTLQQHLVDGRDMIIIRMPKDFPPFPQKLKFREPQREERICLVTTNFQTKSMSSMVSDTSCTFPSGDGIFWKHWIQTKDGQCGSPLVSTRDGFIVGIHSASNFTNTNNYFTSVPKNFMELLTNQEAQQWVSGWRLNADSVLWGGHKVFMVKPEEPFQPVKEATQL [L56E]
- area with substrate ENAYFQS: 0.0374
- area with substrate ENCYFQS: 0.045
- area with substrate ENDYFQS: 0.0147
- area with substrate ENEYFQS: 0.0625
- area with substrate ENGYFQS: 0.0529
- area with substrate ENIYFQS: 0.0423
- area with substrate ENKYFQS: 0.0493
- area with substrate ENNYFQS: 0.0604
- area with substrate ENQYFQS: 0.0444
- area with substrate ENRYFQS: 0.05
- area with substrate ENSYFQS: 0.0417
- area with substrate ENVYFQS: 0.0512
- area with substrate ENWYFQS: 0.031
- area with substrate ENYYFQS: 0.0393

Variant: MGESLFKGPRDYNPISSSICHLTNESDGHTTSLYGIGFGPFIITFKHLFRRNNGTLVVQSLHGVFKVKDTTTLQQHLVDGRDMIIIRMPKDFPPFPQKLKFREPQREERICLVTTNFQTKSMSSMVSDTSCTFPSGDGIFWKHWIQTKDGQCGSPLVSTRDGFIVGIHSASNFTNTNNYFTSVPKNFMELLTNQEAQQWVSGWRLNADSVLWGGHKVFMVKPEEPFQPVKEATQL [N45F]
- area with substrate ENAYFQS: 0.0657
- area with substrate ENCYFQS: 0.0388
- area with substrate ENDYFQS: 0.071
- area with substrate ENEYFQS: 0.0599
- area with substrate ENFYFQS: 0.0464
- area with substrate ENGYFQS: 0.0663
- area with substrate ENIYFQS: 0.0665
- area with substrate ENKYFQS: 0.0752
- area with substrate ENMYFQS: 0.066
- area with substrate ENNYFQS: 0.0576
- area with substrate ENPYFQS: 0.0594
- area with substrate ENQYFQS: 0.0668
- area with substrate ENRYFQS: 0.061
- area with substrate ENTYFQS: 0.0617
- area with substrate ENWYFQS: 0.0644
- area with substrate ENYYFQS: 0.0563

Variant: MGESLFKGPRDYNPISSSICHLTNESDGHTTSLYGIGFGPFIITRKHLFRRNNGTLVVQSLHGVFKVKDTTTLQQHLVDGRDMIIIRMPKDFPPFPQKLKFREPQREERICLVTTNFQTKSMSSMVSDTSCTFPSGDGIFWKHWIQTKDGQCGSPLVSTRDGFIVGIHSASNFTNTNNYFTSVPKNFMELLTNQEAQQWVSGWRLNADSVLWGGHKVFMVKPEEPFQPVKEATQL [N45R]
- area with substrate ENAYFQS: 0.058
- area with substrate ENCYFQS: 0.0603
- area with substrate ENDYFQS: 0.0584
- area with substrate ENGYFQS: 0.064
- area with substrate ENHYFQS: 0.0634
- area with substrate ENIYFQS: 0.0541
- area with substrate ENMYFQS: 0.0812
- area with substrate ENPYFQS: 0.0619
- area with substrate ENQYFQS: 0.0586
- area with substrate ENSYFQS: 0.0602
- area with substrate ENTYFQS: 0.0605
- area with substrate ENVYFQS: 0.0606

Variant: MGESLFKGPRDYNPISSSICHLTNESDGHTTSLYGIGFGPFIITMKHLFRRNNGTLVVQSLHGVFKVKDTTTLQQHLVDGRDMIIIRMPKDFPPFPQKLKFREPQREERICLVTTNFQTKSMSSMVSDTSCTFPSGDGIFWKHWIQTKDGQCGSPLVSTRDGFIVGIHSASNFTNTNNYFTSVPKNFMELLTNQEAQQWVSGWRLNADSVLWGGHKVFMVKPEEPFQPVKEATQL [N45M]
- area with substrate ENAYFQS: 0.0627
- area with substrate ENCYFQS: 0.0699
- area with substrate ENDYFQS: 0.0479
- area with substrate ENEYFQS: 0.0634
- area with substrate ENFYFQS: 0.0575
- area with substrate ENGYFQS: 0.0526
- area with substrate ENIYFQS: 0.0622
- area with substrate ENKYFQS: 0.0889
- area with substrate ENMYFQS: 0.0502
- area with substrate ENNYFQS: 0.0653
- area with substrate ENPYFQS: 0.0545
- area with substrate ENQYFQS: 0.0624
- area with substrate ENRYFQS: 0.0602
- area with substrate ENSYFQS: 0.0572
- area with substrate ENTYFQS: 0.0629
- area with substrate ENVYFQS: 0.0513
- area with substrate ENWYFQS: 0.0884

Variant: MGESLFKGPRDYNPISSSICHLTNESDGHTTSLYGIGFGPFIITNKHLFRFNNGTLVVQSLHGVFKVKDTTTLQQHLVDGRDMIIIRMPKDFPPFPQKLKFREPQREERICLVTTNFQTKSMSSMVSDTSCTFPSGDGIFWKHWIQTKDGQCGSPLVSTRDGFIVGIHSASNFTNTNNYFTSVPKNFMELLTNQEAQQWVSGWRLNADSVLWGGHKVFMVKPEEPFQPVKEATQL [R51F]
- area with substrate ENAYFQS: 0.0685
- area with substrate ENCYFQS: 0.0601
- area with substrate ENDYFQS: 0.0527
- area with substrate ENEYFQS: 0.0594
- area with substrate ENFYFQS: 0.0613
- area with substrate ENGYFQS: 0.0553
- area with substrate ENHYFQS: 0.0601
- area with substrate ENIYFQS: 0.108
- area with substrate ENMYFQS: 0.0911
- area with substrate ENNYFQS: 0.0595
- area with substrate ENPYFQS: 0.0561
- area with substrate ENQYFQS: 0.0498
- area with substrate ENRYFQS: 0.058
- area with substrate ENSYFQS: 0.0635
- area with substrate ENTYFQS: 0.102

Variant: MGESLFKGPRDYNPISSSICHLTNESDGHTTSLYGIGFGPFIITNKHLFERNNGTLVVQSLHGVFKVKDTTTLQQHLVDGRDMIIIRMPKDFPPFPQKLKFREPQREERICLVTTNFQTKSMSSMVSDTSCTFPSGDGIFWKHWIQTKDGQCGSPLVSTRDGFIVGIHSASNFTNTNNYFTSVPKNFMELLTNQEAQQWVSGWRLNADSVLWGGHKVFMVKPEEPFQPVKEATQL [R50E]
- area with substrate ENAYFQS: 0.0512
- area with substrate ENDYFQS: 0.0531
- area with substrate ENEYFQS: 0.0816
- area with substrate ENGYFQS: 0.0594
- area with substrate ENHYFQS: 0.0545
- area with substrate ENMYFQS: 0.0604
- area with substrate ENQYFQS: 0.0674
- area with substrate ENRYFQS: 0.0756
- area with substrate ENVYFQS: 0.0649
- area with substrate ENWYFQS: 0.079
- area with substrate ENYYFQS: 0.0711

Variant: MGESLFKGPRDYNPISSSICHLTNESDGHTTSLYGIGFGPFIITNKHLFRRNNGTLVFQSLHGVFKVKDTTTLQQHLVDGRDMIIIRMPKDFPPFPQKLKFREPQREERICLVTTNFQTKSMSSMVSDTSCTFPSGDGIFWKHWIQTKDGQCGSPLVSTRDGFIVGIHSASNFTNTNNYFTSVPKNFMELLTNQEAQQWVSGWRLNADSVLWGGHKVFMVKPEEPFQPVKEATQL [V58F]
- area with substrate ENAYFQS: 0.0581
- area with substrate ENDYFQS: 0.0752
- area with substrate ENEYFQS: 0.0443
- area with substrate ENGYFQS: 0.0496
- area with substrate ENIYFQS: 0.0998
- area with substrate ENWYFQS: 0.0406
- area with substrate ENYYFQS: 0.0404
